Measurements: patent publication US20240131045A1, “METHODS FOR TREATMENT OF VIRAL INFECTIONS” (priority 2022, published 2024)

Columns and labels:
SARS-CoV-2 [1] = experiment: Efficacy in SARS-CoV-2-infected ferrets; details: 20 mg/kg QD, 4 or 5 days
SARS-CoV-2 [2] = experiment: Efficacy in SARS-CoV-2-infected mice; details: 10 mg/kg BID, 4 or 5 days
SARS-CoV-2 [3] = experiment: Efficacy in SARS-CoV-2-infected African green monkeys (AGM); details: SARS-CoV-2-infected AGM, 60 mg/kg QD, 4 or 5 days

Measured: infectious virus titers in lungs and genomic RNA compared with vehicle-treated animals

CC(C)C(=O)OC[C@H]1O[C@@](C#N)(c2ccc3c(N)ncnn23)[C@H](O)[C@@H]1O [compound 16, obeldesivir]
significant reduction: all assays above
